This is one part of the list.
Biological target: no compound (DMSO)
Assay: log2 fold change of degron read counts, EGFP-low vs EGFP+ sorted cells; higher = lower degron-EGFP level without compound (poor expression or instability)
Conditions: compound: DMSO control; 18 h
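Also: jurkat cells carrying a lentiviral library of mutant zinc finger degrons fused to EGFP plus mCherry, mCherry+ cells FACS sorted, degron abundance counted by next-generation sequencing.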

Sequence | log2 fold change of degron read counts
FSCEICGAGFTQKGNLLRHIKL | -1.33
FCCDQCGAHFTQKGNLLRHIKL | -2.36
FECPICGRSFTQKGNLLRHIKL | -0.123
FWCNICGAKFTQKGNLLRHIKL | -0.301
FTCNICGAYFTQKGNLLRHIKL | 0.228
FKCEQCGADFTQKGNLLRHIKL | -2.37
FVCPICGRTFTQKGNLLRHIKL | -0.329
FQCPICGRWFTQKGNLLRHIKL | 0.887
FGCPICGRCFTQKGNLLRHIKL | 0.0055
FSCEICGHFFTQKGNLLRHIKL | -0.134
FICEICGHGFTQKGNLLRHIKL | -1.87
FYCPICGARFTQKGNLLRHIKL | -1.24
FNCNQCGRHFTQKGNLLRHIKL | 0.673
FSCEVCGANFTQKGNLLRHIKL | -2.47
LVCPICGFNCTQKGNLLRHIKL | 0.883
LQCEICGFACTQKGNLLRHIKL | -0.391
FDCNQCGAWFTQKGNLLRHIKL | 1.37
FTCNQCGAIFTQKGNLLRHIKL | -0.546
FFCPVCGAKFTQKGNLLRHIKL | -0.681
FECPQCGAVFTQKGNLLRHIKL | -1.54
FWCPQCGAQFTQKGNLLRHIKL | 0.152
FYCPICGRDFTQKGNLLRHIKL | -0.414
FYCNQCGANFTQKGNLLRHIKL | 0.0955
FACEICGHAFTQKGNLLRHIKL | -2.48
FTCEICGRQFTQKGNLLRHIKL | -1.61

Sequence | log2 fold change of degron read counts
LDCNQCGFPCTQKGNLLRHIKL | 0.275
FSCNVCGAPFTQKGNLLRHIKL | 0.31
FYCDICGAYFTQKGNLLRHIKL | 0.179
FACDQCGATFTQKGNLLRHIKL | -1.33
LDCPICGFCCTQKGNLLRHIKL | 0.405
FNCEQCGACFTQKGNLLRHIKL | -2.27
FKCDQCGARFTQKGNLLRHIKL | -1.62
FECPICGRDFTQKGNLLRHIKL | -0.349
FRCPICGARFTQKGNLLRHIKL | -0.0707
FYCEQCGANFTQKGNLLRHIKL | -1.81
FRCPICGAVFTQKGNLLRHIKL | 0.13
FDCDVCGARFTQKGNLLRHIKL | -1.04
FACPVCGAHFTQKGNLLRHIKL | 0.0313
FDCNQCGHTFTQKGNLLRHIKL | -0.0989
FWCNVCGAYFTQKGNLLRHIKL | 1.37
FACDQCGALFTQKGNLLRHIKL | -1.15
FDCDICGAAFTQKGNLLRHIKL | -1.46
FKCEVCGACFTQKGNLLRHIKL | -2.28
FACNQCGAVFTQKGNLLRHIKL | -0.231
FECNVCGAVFTQKGNLLRHIKL | -2.59
FTCNQCGHGFTQKGNLLRHIKL | -0.675
LDCPICGFHCTQKGNLLRHIKL | 0.456
FKCDQCGAIFTQKGNLLRHIKL | -1.87
FDCEICGAPFTQKGNLLRHIKL | -1.19
FHCEICGRFFTQKGNLLRHIKL | -0.588
